This is an account of results in PubChem BioAssay (NCATS).

SMILES strings stand for the structures. Where “and” joins values, the source holds several entries; their conditions need not be identical. Identical values can stand only once. Some of the results follow. The main result of the screen is listed elsewhere. These columns were measured beside it and carry no call. For some assays here: The list favours compounds with an active or inconclusive main result. For some assays here: The note in brackets gives the kind of curve behind each potency; many fits are weak.

A short description of assay [1]: qHTS Assay for Lipid Storage Modulators (AID 1519). The settings on record: Drosophila S3 cells, BODIPY lipid droplet/cell ratio, laser cytometry, cells loaded with oleic acid. In outline: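 Cells seeded at 5,000 per well were treated with compounds over a concentration series and loaded with oleic acid (400 uM, as added). Lipid droplet fluorescence (488 nm excitation, 500-530 nm channel) was read by laser-scanning cytometry and normalized to 20 uM Triacsin C.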

Assay [2] is described as follows: S16 Schwann cell PMP22 intronic element beta-lactamase assay (AID 624044). Also: nearly all actives have a fitted effect of over 15% in size. The settings on record: S16 rat Schwann cells, PMP22 element beta-lactamase FRET, 24 h. In outline: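 Beta-lactamase reporter under a PMP22 intronic regulatory element in stable S16 rat Schwann cells; 24 h compound exposure. 460 nm blue signal normalized between DMSO (0%) and potassium clavulanate, with 535 nm FRET tracking viability; curves classed by r2 and response.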

Assay [3] is described as follows: A High-Content qHTS Against Drug Library for the Identification of Small Molecules that Inhibit DYT1 Early Onset Primary Dystonia-Associated Cell Pathology (AID 1645839). The settings on record: HEK293 Flp-In EGFP-delE TorsinA, punctate imaging, 48 h; measured here: cell count cytotoxicity. In outline: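 High-content imaging quantified EGFP-TorsinA mislocalization in HEK293-derived cells inducibly expressing DYT1 mutant torsinA, after 48 h exposure to compound given together with tetracycline induction. Cell count served as a toxicity channel alongside %pathology.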

Assay [4] is described as follows: qHTS drug screen for cell cycle checkpoint inhibitors in PARPi-resistant BRCA-mutant ovarian cancer cell lines. (AID 1963452). As to conditions: PEO1/OlaR viability, CellTiter-Glo luminescence, 96 h. The procedure, abridged:
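PEO1, PEO4 and PEO1/OlaR ovarian cancer cells, 600 per well, exposed 96 h at 37C to a dilution series. Viability read by CellTiter-Glo luminescence, normalized to DMSO and empty wells; activity summarized as Z-AUC.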

Assay [5] in a line: qHTS assay for small molecule antagonists of androgen receptor signaling (AID 588516). The settings on record: AR-UAS-bla HEK293, beta-lactamase ratio, antagonist mode, 16 h; measured here: W460 blue channel fit. In outline:
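Cells were plated and incubated 5 h, compounds added in titration, then R1881 (10 nM final) as agonist. After 16 h at 37 C, CCF4 substrate was loaded for 2 h at room temperature and fluorescence measured.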

Assay [6] is described as follows: qHTS Assay for Modulators of Human Peripheral Myelin Protein 22 (PMP22) Expression/Activity (AID 1967). As to conditions: Cell-based PMP22 reporter, dual-color luciferase ratio. The procedure, abridged: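 Engineered MSC80 cells, Pmp22-promoter green and EF-alpha red luciferase reporters; 24h compound treatment at 37 °C. Concentration-response fits on green, red and ratio signals, each overlap-corrected, with %Activity normalized to untreated wells.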

Assay [7] can be described thus: qHTS Validation Assay to Find Inhibitors of Chronic Active B-Cell Receptor Signaling (AID 485345). The settings on record: ABC-DLBCL cells, chronic BCR signaling reporter. In outline: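 Read-out: ratio of filter-corrected green (IkappaBalpha fusion) to red (native) luciferase signal in doxycycline-induced TMD8 cells after 4 h at 37C. Titration spanned 46 uM–3 nM; Data were normalised to basal cells and 10 uM MG-132 wells.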

Assay [8] in a line: NCATS anti-infectives library activity on the primary C. elegans qHTS viability assay (AID 1745855). As to conditions: C. elegans worm area imaging, day 7, day 3. The procedure, abridged:
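GFP read-out by 488 nm laser cytometry at day 0, 3 and 7, gated on object perimeter, area and peak intensity, scored viability of PE254-GFP-FLuc worms exposed to compound in S medium with bacterial capsules at 21 °C.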

Assay [9] in a line: qHTS assay for small molecule antagonists of glucocorticoid receptor signaling (AID 588533).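 Also: cells stimulated with 2 nM dexamethasone as agonist.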 As to conditions: HeLa MMTV-bla, GRE beta-lactamase ratio, antagonist mode, 18 h; measured here: W530 channel AC50.
Assay [10] is described as follows: qHTS assay for small molecule antagonists of peroxisome proliferator-activated receptor delta signaling (AID 588535).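 Also: cells co-treated with a PPAR-delta agonist as stimulator during compound exposure.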 The settings on record: HEK293T PPARd-UAS-bla, beta-lactamase FRET ratio, 18 h; 460 nm channel. The procedure, abridged:
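Titrations were run on PPAR-delta-UAS-bla HEK293T cells in charcoal/dextran-stripped serum, incubated 18 h at 37 C. CCF4 fluorescence (460/530 nm) after 2 h RT; Hill equation yields IC50 and maximal response.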

A short description of assay [11]: qHTS assay for small molecule antagonists of peroxisome proliferator-activated receptor gamma signaling (AID 588537). As to conditions: HEK293 PPARg-UAS-bla, beta-lactamase ratio, antagonist mode; measured here: W460 blue channel. In outline:
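Antagonist-mode β-lactamase reporter screen run as a titration series. HEK293 PPARγ-UAS-bla cells are stimulated with rosiglitazone (50 nM final) for 16 h, then CCF4 is read at 460/530 nm. Data are scaled between DMSO and rosiglitazone and fitted to the Hill equation.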

A short description of assay [12]: qHTS assay for small molecule antagonists of vitamin D receptor signaling (AID 588541). As to conditions: HEK293T VDR-UAS-bla, beta-lactamase ratio, antagonist mode; measured here: W460 blue channel (cell viability).
Assay [13] in a line: qHTS assay for small molecule agonists of retinoid X receptor alpha signaling (AID 588544). The settings on record: HEK293T RXRa-UAS-bla, beta-lactamase reporter, 18 h; 530 nm emission.
Assay [14] in a line: qHTS assay for small molecule antagonists of retinoid X receptor alpha signaling (AID 588546).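 Also: cells stimulated with 9-cis-retinoic acid as agonist; % is scaled to controls: 0 for no effect and ±100 for the full control effect.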 The settings on record: HEK293T RXRa-UAS-bla, beta-lactamase ratio, antagonist mode; measured here: W530 green channel, cytotoxicity proxy. In outline: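 Beta-lactamase reporter inhibition, read as CCF4 fluorescence ratio (ex 405, em 460/530 nm) after 2 h at RT. HEK293T UAS-bla cells, 2500/well, were stimulated with 9-cis-RA at 500 or 100 nM final alongside test compound for 18 h at 37 C.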

Assay [15] is described as follows: qHTS for identification of novel therapeutic agents for treatment of microphthalmiaassociated transcription factor (MiT) renal cell carcinoma (RCC) (AID 1963991). The settings on record: CellTiter-Glo, 48 h; for z-score: stronger effect = lower value. The procedure, abridged:
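Three TFE3-fusion RCC lines (UOK109, UOK124, UOK145), 500 cells/well in complete medium, were treated with MIPE 4.0 compounds for 48 hours at 37 C. Viability was by CellTiter-Glo luminescence, normalized to DMSO (100%) and empty wells (0%); curves fitted over 11 concentrations.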

Where [16] appears, read: measured here: cell count channel max response.
The mark [17] stands for this setting: measured here: lipid (BODIPY) channel AC50.
Where [18] appears, read: measured here: lipid channel max response.
Setting [19] is: measured here: 460 nm blue channel.
The mark [20] stands for this setting: measured here: PEO1 parental viability.
[21] abbreviates: measured here: green reporter channel AC50, mouse Pmp22 promoter in mouse Schwann cells.
Where [22] appears, read: measured here: red reporter channel AC50, EF-alpha promoter control reporter in MSC80 mouse Schwann cells.
Setting [23] is: measured here: CBG/CBR ratio read-out.
Tags tell the direction and shape of the fitted curve.

For the compound `Cc1cc(C2CCCCC2)n(O)c(=O)c1`, the max response in assay [1] (setting [16]) is -29.1% and -27.4%; in [1] (setting [18]), -78.1% and -74.7%. The AC50 in [1] (setting [17]) is 14.1 µM [falling, single point] and 39.8 µM [falling, single point]; in [2] (setting [19]), 4.77 µM [falling, full curve, poor fit]; in [3] it was 0.562 µM [falling, full curve, poor fit]; in [4] (setting [20]), 9.77 µM [falling, partial curve]; in assay [4] (measured here: PEO4 viability), 5.49 µM [falling, partial curve].

For the compound `CCCCCCc1ccc(O)cc1O`, the max response in assay [1] (setting [16]) is -28.6%; in [1] (setting [18]) it was -36.9%. The AC50 was 39.8 µM [falling, single point] in assay [1] (setting [17]); 39.8 µM [falling, single point] in assay [5]; 7.94 µM [falling, partial curve, poor fit] in assay [3].

Regarding `Cc1cc(-c2ccc(N=Nc3ccc4c(S(=O)(=O)O)cc(S(=O)(=O)O)c(N)c4c3O)c(C)c2)ccc1N=Nc1ccc2c(S(=O)(=O)O)cc(S(=O)(=O)O)c(N)c2c1O`, the figures for the max response in assay [1] (setting [16]) and in assay [1] (setting [18]) were 93.6% and 129%, respectively. For the same compound, the AC50 was 12.6 µM [rising, partial curve] in assay [1] (measured here: cell number channel AC50); 12.6 µM [rising, partial curve] in assay [1] (setting [17]); 1.41 µM [falling, full curve, poor fit] in [2] (setting [19]); 2 µM [falling, full curve, poor fit] in [2] (measured here: 530 nm viability channel).

With `COC(=O)C1=C(C)NC(C)=C(C(=O)OCCN(C)Cc2ccccc2)C1c1cccc([N+](=O)[O-])c1` (centres undefined), the max response in assay [1] (setting [16]) is -5.75%; in [1] (setting [18]), 11%. The concentration at half-maximal activity (AC50) was 0.355 µM [rising, full curve, poor fit] in assay [1] (setting [17]); 60.1 µM [falling, partial curve] in assay [6] (setting [21]); 47.8 µM [falling, partial curve] in [6] (setting [22]); 18.4 µM [falling, partial curve] in assay [7] (setting [23]); 8.2 µM [falling, single point] in assay [7] (measured here: CBR control luciferase (viability counter)); 12.6 µM [falling, single point] in [3].

Take `O=C1CC(c2ccccc2)Oc2ccccc21` (centres undefined): the max response in assay [1] (setting [16]) is 26.9%; in [1] (setting [18]) it was 39.2%. Also, the AC50 in [1] (setting [17]) is 0.282 µM [rising, partial curve, poor fit]; in assay [8] (measured here: worm number), 23 µM [falling, single point].

Regarding `COc1cccc2c1C(=O)c1c(O)c3c(c(O)c1C2=O)C[C@@](O)(C(C)=O)C[C@@H]3O[C@H]1C[C@H](N)[C@H](O)[C@H](C)O1`, the max response in assay [1] (setting [16]) was -31.1%; in [1] (setting [18]), -95.1%; in assay [10], -132%; in assay [13] it was -18.2%. For the same compound, the AC50 in [1] (setting [17]) was 1 µM [falling, full curve, poor fit]; in assay [9], 2.51 µM [falling, full curve]; in assay [11], 8.91 µM [falling, full curve]; in assay [12], 8.91 µM [falling, full curve, poor fit]; in [2] (setting [19]) it was 0.178 µM [falling, full curve]; in assay [3], 35.5 µM [falling, partial curve, poor fit]. In addition, the AC50 in assay [8] (measured here: worm area) is 0.0816 µM [falling, full curve, poor fit]; in assay [4] (setting [20]), 0.155 µM [falling, full curve]; in assay [4] (measured here: PEO4 viability), 0.436 µM [falling, full curve].

`COc1ccc(C(Cl)=C(c2ccc(OC)cc2)c2ccc(OC)cc2)cc1`: the max response in assay [1] (setting [16]) came out at 21.7%; in assay [1] (setting [18]), 52.5%. For the same compound, the AC50 in [1] (setting [17]) is 35.5 µM [rising, single point]; in assay [3], 6.31 µM [rising, partial curve].

With `Nc1nc(N)c2nc(-c3ccccc3)c(N)nc2n1`, the max response in assay [1] (setting [16]) is 18.4%; in [1] (setting [18]), 32.2%; in [10], 991% and 512%; in assay [13], 81.1% and 36.5%; in [14], 56.1% and 52.3%. Also, the AC50 in assay [1] (setting [17]) was 20 µM [rising, partial curve, poor fit]; in [6] (setting [21]), 84.9 µM [falling, single point]; in assay [6] (setting [22]), 30.1 µM [falling, partial curve, poor fit]; in assay [7] (setting [23]), 11.6 µM [falling, partial curve]; in [5] it was 44.7 µM [rising, partial curve] and 28.2 µM [rising, partial curve]; in [12], 31.6 µM [rising, partial curve] and 35.5 µM [rising, partial curve]. Besides, the AC50 was 1.26 µM [rising, partial curve, poor fit] in [3] and 25.8 µM [falling, single point] in [8] (measured here: worm number).

Turning to `CCCCCN(CCCCC)C(=O)C(CCC(=O)O)NC(=O)c1ccc(Cl)c(Cl)c1` (centres undefined), the max response in [1] (setting [16]) came out at 19.8%; in assay [1] (setting [18]), 32.1%. Besides, the half-maximal activity concentration (AC50) in assay [1] (setting [17]) is 14.1 µM [rising, partial curve, poor fit]; in assay [3] it was 7.08 µM [falling, partial curve, poor fit].

As to `CN1CCC(=C2c3ccccc3CC(=O)c3sccc32)CC1`, the max response in assay [1] (setting [16]) is 21.5%; in assay [1] (setting [18]) it was 50% and 37.7%. The AC50 is 28.2 µM [rising, partial curve, poor fit] and 22.4 µM [rising, partial curve] in [1] (setting [17]); 75.7 µM [falling, single point] in assay [6] (setting [22]); 35.5 µM [falling, single point] in [3]; 18.7 µM [falling, partial curve] in assay [15] (TFE3-RCC viability, measured here: UOK124 cell viability); 26.4 µM [falling, single point] in assay [15] (TFE3-RCC viability, measured here: UOK145 cell viability). The z-score in assay [15] (TFE3-RCC UOK109 viability, measured here: UOK109 Z-AUC) was -0.261; in assay [15] (TFE3-RCC viability, measured here: UOK124 Z-AUC), -0.24; in [15] (TFE3-RCC viability, measured here: UOK145 Z-AUC) it was -0.489.
